Where two headings read alike, the source gives them in different places.
How the values were obtained:
Salmonella = format: cell-based; conditions: composition listed in Table 1 in presence of the antibiotic; for Colonies showing decreasing inhibition zone / Colonies showing increasing inhibition zones / Colonies with no change in inhibition zone: 30 colonies; for % colonies showing increase in inhibition zone: of 30 tested colonies
S. saprophyticus = assay: Inhibition zone of S. saprophyticus colonies exposed to composition of Table 1 in presence of antibiotics; format: cell-based; conditions: composition listed in Table 1 in presence of the antibiotic; for Colonies showing a decrease in inhibition zone / Colonies showing an increase in inhibition zone / Colonies with no change in inhibition zone: 15 colonies; for Percent colonies showing increase in inhibition zone (%): of 15 tested colonies
S. aureus = assay: Inhibition zone of S. aureus colonies exposed to composition of Table 1 in presence of antibiotic GM; format: cell-based; conditions: composition listed in Table 1 in presence of the antibiotic, 15 colonies
Listeria = assay: Inhibition zone of Listeria colonies exposed to composition of Table 1 in presence of antibiotics; format: cell-based; conditions: composition listed in Table 1 in presence of the antibiotic; for Colonies showing a decreasing inhibition zone / Colonies showing increasing inhibition zone / Number of colonies with no change in inhibition zone: 30 colonies; for Percent colonies showing increase in inhibition zone (%): of 30 tested colonies
Brucella = format: cell-based; conditions: composition listed in Table 1 in presence of the antibiotic; for Colonies showing decreasing inhibition zone / Colonies showing increasing inhibition zone / Colonies with no change in inhibition zone: 30 colonies; for Percent colonies showing increase in inhibition zone (%): of 30 tested colonies
Yerssinia = assay: Inhibition zone of Yerssinia colonies exposed to composition of Table 1 in presence of antibiotics; format: cell-based; conditions: composition listed in Table 1 in presence of the antibiotic; for Colonies showing decrease in inhibition zone / Colonies showing increase in inhibition zone / Colonies with no change in inhibition zone: 30 colonies; for Percent colonies showing increase in inhibition zone (%): of 30 tested colonies
E. coli = assay: Inhibition zone of E. coli colonies exposed to composition of Table 1 in presence of antibiotics
[1] = 1 h, composition listed in Table 1 in presence of the antibiotic, 30 colonies

Gentamicin [GM]
Colonies showing decreasing inhibition zone (Salmonella; 1 h): 3
Colonies showing increasing inhibition zones (Salmonella; 1 h): 27
Colonies with no change in inhibition zone (Salmonella; 1 h): 0
% colonies showing increase in inhibition zone (Salmonella; 1 h): 90.0%
Colonies showing decreasing inhibition zone (Salmonella; 2 h): 2
Colonies showing increasing inhibition zones (Salmonella; 2 h): 26
Colonies with no change in inhibition zone (Salmonella; 2 h): 2
% colonies showing increase in inhibition zone (Salmonella; 2 h): 86.7%
Colonies showing a decrease in inhibition zone (S. saprophyticus; 1 h): 0
Colonies showing an increase in inhibition zone (S. saprophyticus; 1 h): 14
Colonies with no change in inhibition zone (S. saprophyticus; 1 h): 1
Percent colonies showing increase in inhibition zone (%) (S. saprophyticus; 1 h): 93.3%
Colonies showing a decrease in inhibition zone (S. saprophyticus; 2 h): 0
Colonies showing an increase in inhibition zone (S. saprophyticus; 2 h): 15
Colonies with no change in inhibition zone (S. saprophyticus; 2 h): 0
Percent colonies showing increase in inhibition zone (%) (S. saprophyticus; 2 h): 100.0%
Colonies showing a decrease in inhibition zone (S. aureus; 1 h): 0
Colonies showing an increase in inhibition zone (S. aureus; 1 h): 14
Number of colonies with no change in inhibition zone (S. aureus; 1 h): 1
Colonies showing a decrease in inhibition zone (S. aureus; 2 h): 1
Colonies showing an increase in inhibition zone (S. aureus; 2 h): 14
Number of colonies with no change in inhibition zone (S. aureus; 2 h): 0
Colonies showing a decreasing inhibition zone (Listeria; 1 h): 3
Colonies showing increasing inhibition zone (Listeria; 1 h): 26
Number of colonies with no change in inhibition zone (Listeria; 1 h): 1
Percent colonies showing increase in inhibition zone (%) (Listeria; 1 h): 86.7%
Colonies showing a decreasing inhibition zone (Listeria; 2 h): 2
Colonies showing increasing inhibition zone (Listeria; 2 h): 28
Number of colonies with no change in inhibition zone (Listeria; 2 h): 0
Percent colonies showing increase in inhibition zone (%) (Listeria; 2 h): 93.3%
Colonies showing decreasing inhibition zone (Brucella; 1 h): 4
Colonies showing increasing inhibition zone (Brucella; 1 h): 22
Colonies with no change in inhibition zone (Brucella; 1 h): 4
Percent colonies showing increase in inhibition zone (%) (Brucella; 1 h): 73.3%
Colonies showing decreasing inhibition zone (Brucella; 2 h): 13
Colonies showing increasing inhibition zone (Brucella; 2 h): 14
Colonies with no change in inhibition zone (Brucella; 2 h): 3
Percent colonies showing increase in inhibition zone (%) (Brucella; 2 h): 46.7%
Colonies showing decrease in inhibition zone (Yerssinia; 1 h): 3
Colonies showing increase in inhibition zone (Yerssinia; 1 h): 24
Colonies with no change in inhibition zone (Yerssinia; 1 h): 3
Percent colonies showing increase in inhibition zone (%) (Yerssinia; 1 h): 80.0%
Colonies showing decrease in inhibition zone (Yerssinia; 2 h): 1
Colonies showing increase in inhibition zone (Yerssinia; 2 h): 27
Colonies with no change in inhibition zone (Yerssinia; 2 h): 2
Percent colonies showing increase in inhibition zone (%) (Yerssinia; 2 h): 90.0%
Percent colonies showing increase in inhibition zone (%) (E. coli; 1 h): 73.3%
Number of colonies showing a decrease in inhibition zone (E. coli; [1]): 6
Number of colonies showing an increase in inhibition zone (E. coli; [1]): 22
Number of colonies with no change in inhibition zone (E. coli; [1]): 2
Number of colonies showing an increase in inhibition zone (E. coli; 2 h, composition listed in Table 1 in presence of the antibiotic, 30 colonies): 12
Percent colonies showing increase in inhibition zone (%) (E. coli; 2 h, composition listed in Table 1 in presence of the antibiotic, of 30 tested colonies): 40.0%
